Measured values published in patent US11178870B2 (priority 2017, dated 2021).

Key:
Type in all cases: in vivo
[1] = test system: Botrytis cinerea; assay: Test Example B: Gray mold on tomato; settings: class of control value, Table 7
[2] = test system: Alternaia brassicicola; assay: Test Example C: Alternaria sooty spot on cabbage; settings: class of control value, Table 7
[3] = test system: Plasmopara viticola; assay: Test Example G: Downy mildew on vine; settings: 250 ppm spray, 2.5 ml/pot; investigated 7 to 10 days after inoculation
[4] = test system: Blumeria graminis f. sp. hordei; assay: Test Example D: Powdery mildew on barley; settings: class of control value, Table 7
[5] = test system: Puccinia recondita; assay: Test Example E: Brown rust on wheat; settings: class of control value, Table 7

`Cc1cnn(-c2cc(Cl)c(=O)n(CC(F)F)c2-c2ccccc2Br)c1Cl` [Compound 407] was tested, and the “Test B control value (gray mold on tomato)” value (from here on “Test B control value”) [1] was “H (H shows the control value more than 50%)”, the “Test C control value (Alternaria sooty spot on cabbage)” value (“Test C control value” for short) [2] was “H (H shows the control value more than 50%)” and the “Test G control value (downy mildew on vine)” value (shortened to “Test G control value”) [3] was “L (L shows the control value of 50% or less)”. For the same compound, the “Test D control value (powdery mildew on barley)” value (“Test D control value” below) [4] was “H (H shows the control value more than 50%)” and the “Test E control value (brown rust on wheat)” value (from here on “Test E control value”) [5] was “H (H shows the control value more than 50%)”.
For `Cc1cnn(-c2cc(Br)c(=O)n(CC(F)F)c2-c2ccccc2Br)c1Cl` [Compound 409], the “Test B control value” value [1] was “H (H shows the control value more than 50%)”, the “Test C control value” value [2] was “H (H shows the control value more than 50%)” and the “Test G control value” value [3] was “L (L shows the control value of 50% or less)”. For the same compound, the “Test D control value” value [4] was “H (H shows the control value more than 50%)” and the “Test E control value” value [5] was “H (H shows the control value more than 50%)”.
`Cc1cnn(-c2cc(Cl)c(=O)n(C)c2-c2ccc(F)cc2F)c1Cl` [Compound 410] was tested, and the “Test B control value” value [1] was “H (H shows the control value more than 50%)”, the “Test C control value” value [2] was “H (H shows the control value more than 50%)” and the “Test G control value” value [3] was “H (H shows the control value more than 50%)”. The “Test D control value” value [4] was “H (H shows the control value more than 50%)” and the “Test E control value” value [5] was “H (H shows the control value more than 50%)”.
In the case of `Cc1cnn(-c2cc(Br)c(=O)n(C)c2-c2ccc(F)cc2F)c1Cl` [Compound 412], the “Test B control value” value [1] is reported as “H (H shows the control value more than 50%)”, the “Test C control value” value [2] is reported as “H (H shows the control value more than 50%)” and the “Test G control value” value [3] is reported as “H (H shows the control value more than 50%)”. The “Test D control value” value [4] was “H (H shows the control value more than 50%)” and the “Test E control value” value [5] was “H (H shows the control value more than 50%)”.
For `Cn1c(-c2c(F)cccc2F)c(-n2cc(F)cn2)ccc1=O` [Compound 413], the “Test B control value” value [1] was “H (H shows the control value more than 50%)”, the “Test C control value” value [2] was “L (L shows the control value of 50% or less)” and the “Test G control value” value [3] was “L (L shows the control value of 50% or less)”. The “Test D control value” value [4] was “H (H shows the control value more than 50%)” and the “Test E control value” value [5] was “L (L shows the control value of 50% or less)”.
With `CCn1c(-c2c(F)cccc2F)c(-c2sccc2Br)cc(Br)c1=O` [Compound 416] the “Test B control value” value [1] was “H (H shows the control value more than 50%)”, the “Test C control value” value [2] was “H (H shows the control value more than 50%)” and the “Test G control value” value [3] was “H (H shows the control value more than 50%)”. The “Test D control value” value [4] was “H (H shows the control value more than 50%)” and the “Test E control value” value [5] was “H (H shows the control value more than 50%)”.
`O=c1ccc(-c2sccc2Br)c(-c2c(F)cccc2F)n1CC(F)F` [Compound 418] was tested, and the “Test B control value” value [1] was “H (H shows the control value more than 50%)”, the “Test C control value” value [2] was “H (H shows the control value more than 50%)” and the “Test G control value” value [3] was “L (L shows the control value of 50% or less)”. The “Test D control value” value [4] was “H (H shows the control value more than 50%)” and the “Test E control value” value [5] was “H (H shows the control value more than 50%)”.
